Assay results from paper PMC10668032.
The list shows a part of the results. At the low end of the ranking the order means little.

biological target: SIX1-Q177R homeodomain (UniProt Q15475); assay: universal protein binding microarray; details: Universal all-10-mer PBM (8x60K, AMADID 030236), 300 nM GST-tagged protein, Alexa Fluor 488 anti-GST; buffer, salt, pH and temperature not stated; high values mean tight binding; most listed sequences are background and not binding sites; double strand, one strand shown

| Sequence | binding signal |
| --- | --- |
| GCCATCGA | -0.291 E-score |
| TCCGTGCA | 0.036 E-score |
| CAAGGCTG | 0.0315 E-score |
| CGGAACAA | -0.0573 E-score |
| CCCTAAGC | 0.00473 E-score |
| GCACATTA | 0.00653 E-score |
| CGCGTTAG | 0.0144 E-score |
| GTAGTCAA | -0.0291 E-score |
| AACCGTCC | -0.249 E-score |
| AGAGTGTG | 0.247 E-score |
| CGTTTGAG | 0.0821 E-score |
| CATGTATC | -0.0369 E-score |
| ACGAGTTG | -0.0143 E-score |
| CGAATGGC | -0.26 E-score |
| ACTGGCGG | -0.129 E-score |
| ACTCTATC | 0.136 E-score |
| AGCCATCA | -0.279 E-score |
| AGGTCTTC | -0.0224 E-score |
| ACGCCTAC | -0.0379 E-score |
| CGTTGCAG | -0.0723 E-score |
| AGGCCTGC | -0.245 E-score |
| TCCACACA | -0.0792 E-score |

| Sequence | binding signal |
| --- | --- |
| ATACGCAG | -0.0631 E-score |
| AGGCAGTC | -0.281 E-score |
| GATATGAA | -0.111 E-score |
| TCTCGAAA | -0.129 E-score |
| GATTCTCA | -0.265 E-score |
| CTGGGCGC | -0.185 E-score |
| AGGAGAAT | -0.117 E-score |
| AAAGCAGG | -0.0306 E-score |
| CGACGATA | -0.0801 E-score |
| AGCCCCTG | -0.0585 E-score |
| TAGACGGA | -0.157 E-score |
| CTTAAAAA | -0.284 E-score |
| CGAGCTCC | -0.118 E-score |
| ACCAACCC | 0.167 E-score |
| TGGCGACA | 0.0688 E-score |
| ATCGCAAC | 0.0326 E-score |
| CTATGGAG | -0.149 E-score |
| GATCCGCA | 0.14 E-score |
| GATCAGGA | -0.074 E-score |
| AACAAACC | -0.0429 E-score |
| CGGGCATC | -0.00407 E-score |
| ATGCTCGG | -0.213 E-score |

| Sequence | binding signal |
| --- | --- |
| GGTCGACA | 0.172 E-score |
| CCCAACAC | 0.403 E-score |
| GAAAAGTC | -0.128 E-score |
| CCACCTCC | 0.159 E-score |
| AGTATACT | -0.0238 E-score |
| CGATCACC | -0.0447 E-score |
| CCTTGGAA | -0.03 E-score |
| TGAAAACA | 0.109 E-score |
| CCACCGAC | 0.0604 E-score |
| CAACCCGC | 0.0332 E-score |
| CTGACCTA | -0.0423 E-score |
| AGGAGCTC | -0.177 E-score |
| ATACGGAG | -0.0606 E-score |
| ATCTATAC | 0.0276 E-score |
| CTAAAATA | -0.0953 E-score |
| CTGCCAAG | -0.193 E-score |
| GGACGAAC | -0.0404 E-score |
| CAGACGGC | -0.0978 E-score |
| GAGAAAGC | -0.123 E-score |
| ATTAAATG | -0.12 E-score |
| CTCGCGCC | -0.0556 E-score |
| GACCACCC | 0.0643 E-score |
